Experimental data published in PMC11995724, “Antibiotic target discovery by integrated phenotypic and activity-based profiling of electrophilic fragments” (Cell chemical biology, 2025).
Out of some 3,200 compounds screened, about 75 (2%) showed an effect of 50% or more. This is one part of the list.

test system: T1, S. aureus MSSA476; set-up: species or system S. aureus MSSA476 (TSB) or V. cholerae SAD30 (LB); 384-well bacterial growth screen at 25 uM, OD600 relative to DMSO control; settings: relative growth, OD600, TSB; 25 µM; inhibitor
T1 construct: MSSA476

Row | SMILES | % of control remaining [%]
1 | O=C(CCl)N1N=C(c2cccs2)CC1c1cccs1 (stereo not shown) [4-O18, 1-[3,5-bis(thiophen-2-yl)-4,5-dihydro-1H-pyrazol-1-yl]-2-chloroethan-1-one] | 105.193
2 | C=CC(=O)NCCNC(=O)c1c(C)cc(C)nc1C [2-I12, N-{2-[(2,4,6-trimethylpyridin-3-yl)formamido]ethyl}prop-2-enamide] | 130.548
3 | C=CC(=O)N1CCn2c(nnc2C2CCCC2)C1 [3-C09, 1-{3-cyclopentyl-5H,6H,7H,8H-[1,2,4]triazolo[4,3-a]pyrazin-7-yl}prop-2-en-1-one] | 108.663
4 | C=CC(=O)N(Cc1cn(C)cn1)[C@H]1CCCc2ccc(C)cc21 [1-J11, N-[(1S)-7-methyl-1,2,3,4-tetrahydronaphthalen-1-yl]-N-[(1-methyl-1H-imidazol-4-yl)methyl]prop-2-enamide] | 110.769
5 | CN(CC(=O)Nc1cccc(Cl)c1)C(=O)CCl [5-F18, 2-chloro-N-{[(3-chlorophenyl)carbamoyl]methyl}-N-methylacetamide] | 104.554
6 | CC(Cl)C(=O)NC1(C(=O)Nc2ccccc2)CC1 (stereo not shown) [7-K14, 1-(2-chloropropanamido)-N-phenylcyclopropane-1-carboxamide] | 101.413
7 | C=CC(=O)N(Cc1cn(C)nc1C)c1ccc2c(c1)OCCO2 [1-P13, N-(2,3-dihydro-1,4-benzodioxin-6-yl)-N-[(1,3-dimethyl-1H-pyrazol-4-yl)methyl]prop-2-enamide] | 87.9121
8 | Cc1c(C#N)c(NC(=O)CCl)n(Cc2ccco2)c1C [4-D09, 2-chloro-N-{3-cyano-1-[(furan-2-yl)methyl]-4,5-dimethyl-1H-pyrrol-2-yl}acetamide] | 96.0457
9 | C=CC(=O)Nc1sc2c(c1C(N)=O)CCCCC2 [1-F21, 2-(prop-2-enamido)-4H,5H,6H,7H,8H-cyclohepta[b]thiophene-3-carboxamide] | 84.7473
10 | Cc1nn(CC(F)(F)F)c(C)c1C1COCCN1C(=O)CCl (stereo not shown) [5-J13, 2-chloro-1-{3-[3,5-dimethyl-1-(2,2,2-trifluoroethyl)-1H-pyrazol-4-yl]morpholin-4-yl}ethan-1-one] | 111.475
11 | C=CC(=O)NCC1(S(=O)(=O)CC)CC1 [3-O13, N-{[1-(ethanesulfonyl)cyclopropyl]methyl}prop-2-enamide] | 91.2495
12 | C=CC(=O)Nc1cc(C(C)C)ccc1C(C)C [1-I21, N-[2,5-bis(propan-2-yl)phenyl]prop-2-enamide] | 94.2418
13 | CCOc1ccccc1C=C(C#N)C(=O)Nc1ccc(Cl)cc1 [8-B09, N-(4-chlorophenyl)-2-cyano-3-(2-ethoxyphenyl)prop-2-enamide] | 87.3029
14 | Cc1cccc(NC(=O)NC(=O)CCl)c1C [4-D21, 3-(2-chloroacetyl)-1-(2,3-dimethylphenyl)urea] | 117.77
15 | C=CC(=O)N1CCC(c2nc3ccccc3o2)CC1 [1-N18, 1-[4-(1,3-benzoxazol-2-yl)piperidin-1-yl]prop-2-en-1-one] | 131.516
16 | COc1ccc(C(NC(=O)CCl)C(C)C)cc1 (stereo not shown) [4-A13, 2-chloro-N-[1-(4-methoxyphenyl)-2-methylpropyl]acetamide] | 128.442
17 | O=C1C=CC(=O)N1c1ccc(F)cc1 [10-M10, 1-(4-fluorophenyl)-2,5-dihydro-1H-pyrrole-2,5-dione] | 118.75
18 | COc1ccc(NC(=O)C(C#N)=Cc2cnc3c(C)cccn23)cc1 [9-L03, 2-cyano-N-(4-methoxyphenyl)-3-{8-methylimidazo[1,2-a]pyridin-3-yl}prop-2-enamide] | 127.041
19 | C=CC(=O)NCCC1=CCCCCC1 [1-P21, N-[2-(cyclohept-1-en-1-yl)ethyl]prop-2-enamide] | 79.8242

Row | SMILES | % of control remaining [%]
20 | O=C(CCc1ccccc1)NC1CCN(C(=O)CCl)CC1 [5-L08, N-[1-(2-chloroacetyl)piperidin-4-yl]-3-phenylpropanamide] | 103.825
21 | CC(NC(=O)C(C#N)=Cc1ccc(C(F)(F)F)cc1)c1ccccc1 (stereo not shown) [9-L21, 2-cyano-N-(1-phenylethyl)-3-[4-(trifluoromethyl)phenyl]prop-2-enamide] | 87.4906
22 | COc1cc(C=C(C#N)C(N)=O)cc(OC)c1OC [9-K13, 2-cyano-3-(3,4,5-trimethoxyphenyl)prop-2-enamide] | 97.0787
23 | O=C(CCl)Nc1cc(-c2ccc3c(c2)CCC3)nn1-c1ccccc1 [6-J10, 2-chloro-N-[3-(2,3-dihydro-1H-inden-5-yl)-1-phenyl-1H-pyrazol-5-yl]acetamide] | 102.439
24 | O=C(CCl)NCc1ccc(Cl)c(C(F)(F)F)c1 [7-D22, 2-chloro-N-{[4-chloro-3-(trifluoromethyl)phenyl]methyl}acetamide] | 72.8414
25 | CC(C)NC(=O)C(C#N)=Cc1ccccc1 [8-L05, 2-cyano-3-phenyl-N-(propan-2-yl)prop-2-enamide] | 128.465
26 | O=C(CCl)Nc1ccccc1C(=O)NCc1ccccc1 [4-C03, N-benzyl-2-(2-chloroacetamido)benzamide] | 82.7061
27 | O=C(CCl)NCC(=O)N(c1ccccc1)c1ccccc1 [7-B12, 2-chloro-N-[(diphenylcarbamoyl)methyl]acetamide] | 97.3312
28 | C=CC(=O)N(C)CC(=O)N1CCOC(c2ccccc2Cl)C1 (stereo not shown) [2-J04, N-{2-[2-(2-chlorophenyl)morpholin-4-yl]-2-oxoethyl}-N-methylprop-2-enamide] | 110.009
29 | CCN(CC(=O)NC1CCS(=O)(=O)C1)C(=O)CCl (stereo not shown) [4-I19, 2-chloro-N-{[(1,1-dioxo-1lambda6-thiolan-3-yl)carbamoyl]methyl}-N-ethylacetamide] | 127.68
30 | CC(Cl)C(=O)N[C@@H]1CCc2c(C#N)cccc21 (stereo partly drawn) [6-P14, 2-chloro-N-[(1R)-4-cyano-2,3-dihydro-1H-inden-1-yl]propanamide] | 122.927
31 | N#CC(=Cc1ccccc1Cl)C(=O)Nc1cccc2ncccc12 [8-C15, 3-(2-chlorophenyl)-2-cyano-N-(quinolin-5-yl)prop-2-enamide] | 119.17
32 | O=C(CCl)c1ccoc1 [10-O09, 2-chloro-1-(furan-3-yl)ethan-1-one] | 115
33 | N#CC(C(=O)Nc1ccccc1)=C1NCCCN1 [8-H10, 2-cyano-2-(1,3-diazinan-2-ylidene)-N-phenylacetamide] | 108.88
34 | CC(Cl)C(=O)NCCc1cn(C)nn1 (stereo not shown) [7-A14, 2-chloro-N-[2-(1-methyl-1H-1,2,3-triazol-4-yl)ethyl]propanamide] | 95.1334
35 | Cc1ccc(N2C(=O)C=CC2=O)c([N+](=O)[O-])c1 [10-N13, 1-(4-methyl-2-nitrophenyl)-2,5-dihydro-1H-pyrrole-2,5-dione] | 82.8125
36 | C=CC(=O)NCC1CCN(S(=O)(=O)C(F)(F)F)CC1 [1-A03, N-[(1-trifluoromethanesulfonylpiperidin-4-yl)methyl]prop-2-enamide] | 117.099
37 | C=CC(=O)N(Cc1ccccc1)Cc1ccccc1 [1-P04, N,N-dibenzylprop-2-enamide] | 86.8571
